# According to PubChem BioAssay (NCATS):
# Several values for one entry are separate records, joined by “and”; a condition that tells them apart may be missing. Equal entries are not always repeated. This list was built around the results that the source calls inconclusive (neither active nor inactive); the mix of calls is not that of the screen. For some of these results: Potencies of inconclusive entries are doubtful fits and often do not repeat. The source holds several records for some structures; these can differ, active in one and inactive in another. Activity calls are given as the source filed them. The call rests on the fitted dose curve; in most records, active means well fitted curve in the direction sought with a large enough effect; inconclusive means small, poorly fitted or top-dose-only effect, or another doubt; inactive means no such curve, though single readings can be large; an effect the other way counts as inactive or inconclusive.
# Legend:
# [1] = Cell Viability - LYMP2-021 (AID 974); settings: LYMP2-021 lymphoblastoid cells viability;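 further: potency means the concentration at half of the fitted maximal effect; compound exposure lasts 24 hours at 37 °C; nearly all actives have a fitted effect of over 55% in size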
# Method in brief: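 ATP luminescence (CellTiter-Glo, 30 min RT) after 24 h compound exposure at 37 C; 2500 human lymphoblastoid cells/well, 5 h settle beforehand. Cytotoxicity = concentration-dependent ATP drop, AC50 by Hill fit.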
# [2] = Cell Viability - LYMP2-025 (AID 976); settings: LYMP2-025 lymphoblastoid cell viability; further: potency means the concentration at half of the fitted maximal effect
# Method in brief: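 CellTiter-Glo luminescence (cellular ATP) after 24 h compound exposure at 37 C; LYMP2-025 human lymphoblastoid cells, 2500/well, complete medium. Tetraoctylammonium bromide positive control. AC50 by Hill equation fit of qHTS concentration-response.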
# [3] = Cell Viability - LYMP2-002 (AID 977); settings: LYMP2-002 lymphoblastoid cell viability, qHTS; further: potency means the concentration at half of the fitted maximal effect
# Method in brief: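 Human lymphoblastoid cells, 2500/well, complete medium; 5 h 37 C settle; compound 24 h 37 C; CellTiter-Glo, 30 min RT; luminescence. Decrease in ATP = cytotoxicity; AC50 via Hill equation.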
# [4] = Cell Viability - LYMP2-010 (AID 981); settings: LYMP2-010 lymphoblastoid cell viability, qHTS;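 further: potency means the concentration at half of the fitted maximal effect; cells exposed to compound for 24 hours at 37 °C; nearly all actives have a fitted effect of over 55% in size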
# Method in brief: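 qHTS cytotoxicity, 1536-well: 2500 cells/well, 5 hr settle, 24 hr compound at 37 C, CellTiter-Glo 30 min RT, luminescence read. Decrease in ATP = toxicity; AC50 via standard Hill equation. Positive control tetraoctylammonium bromide.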
# [5] = Cell Viability - LYMP2-014 (AID 983); settings: LYMP2-014 lymphoblastoid cells, viability qHTS; further: potency means the concentration at half of the fitted maximal effect; nearly all actives have a fitted effect of over 50% in size
# Method in brief: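 2500 cells/well, 5 hr 37 C; cpd 24 hr 37 C, complete medium; CellTiter-Glo 30 min RT, luminescence; ATP loss = toxicity; AC50 via Hill eqn; tetraoctylammonium bromide positive control.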
# [6] = Cell Viability - LYMP2-020 (AID 986); further: potency means the concentration at half of the fitted maximal effect; nearly all actives have a fitted effect of over 55% in size
# Method in brief: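 qHTS, 2500 cells/well; 5 hr then 24 hr compound exposure, 37 C; CellTiter-Glo luminescence after 30 min RT; ATP decrease taken as cytotoxicity; AC50 via Hill equation; tetraoctylammonium bromide positive control.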
# [7] = Cell Viability - LYMP2-024 (AID 988); settings: LYMP2-024 lymphoblastoid cell viability; series mostly up to 92.2 µM; further: potency means the concentration at half of the fitted maximal effect; nearly all actives have a fitted effect of over 60% in size
# Method in brief: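 ATP-based luminescence (CellTiter-Glo, 30 min RT) after 24 h compound exposure at 37 C of 2500 lymphoblastoid cells/well; decrease in ATP taken as cytotoxicity. qHTS concentration-response fitted to standard Hill equation for AC50.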
# [8] = target: Cytochrome P450 2D6 (Homo sapiens) (UniProt P10635); experiment: qHTS Assay for Inhibitors and Substrates of Cytochrome P450 2D6 (AID 891); settings: recombinant CYP2D6, luciferin-ME EGE luminescence; series mostly up to 57.1 µM;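 further: luciferin methyl ether substrate demethylated by CYP2D6 with NADPH regeneration; nearly all actives have a fitted effect of over 60% in size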; further: potency means the concentration at half of the fitted maximal effect
# Chain of UniProt P10635 (P10635 whole entry, looked up): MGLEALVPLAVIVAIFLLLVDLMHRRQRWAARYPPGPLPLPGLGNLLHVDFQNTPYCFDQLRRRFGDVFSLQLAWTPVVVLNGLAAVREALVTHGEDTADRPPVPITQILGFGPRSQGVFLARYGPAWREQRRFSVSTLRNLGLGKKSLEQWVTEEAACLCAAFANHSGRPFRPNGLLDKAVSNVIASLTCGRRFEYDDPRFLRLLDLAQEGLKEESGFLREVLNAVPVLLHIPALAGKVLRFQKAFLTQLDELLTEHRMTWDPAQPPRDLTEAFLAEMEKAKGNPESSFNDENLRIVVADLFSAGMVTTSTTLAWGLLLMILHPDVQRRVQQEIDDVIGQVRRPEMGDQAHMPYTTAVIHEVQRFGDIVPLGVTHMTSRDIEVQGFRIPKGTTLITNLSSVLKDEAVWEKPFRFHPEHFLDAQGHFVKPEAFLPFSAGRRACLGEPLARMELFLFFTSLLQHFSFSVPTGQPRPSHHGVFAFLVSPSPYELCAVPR
# Method in brief: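 Luminescent read-out of luciferin formed by 5 nM human CYP2D6 demethylating 30 uM Luciferin-ME EGE (Km level) over 60 min at room temperature after NADPH regeneration addition. Data normalized to full inhibition by 1.43 uM quinidine.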
# [9] = target: Pyruvate kinase (Leishmania mexicana) (UniProt Q27686); experiment: qHTS Validation Assay for Inhibitors of Leishmania Mexicana Pyruvate Kinase (AID 945); settings: purified L. mexicana pyruvate kinase, enzyme activity, E451W mutant enzyme; series mostly up to 57.5 µM
# Chain of UniProt Q27686 (Q27686 2-499 E452W): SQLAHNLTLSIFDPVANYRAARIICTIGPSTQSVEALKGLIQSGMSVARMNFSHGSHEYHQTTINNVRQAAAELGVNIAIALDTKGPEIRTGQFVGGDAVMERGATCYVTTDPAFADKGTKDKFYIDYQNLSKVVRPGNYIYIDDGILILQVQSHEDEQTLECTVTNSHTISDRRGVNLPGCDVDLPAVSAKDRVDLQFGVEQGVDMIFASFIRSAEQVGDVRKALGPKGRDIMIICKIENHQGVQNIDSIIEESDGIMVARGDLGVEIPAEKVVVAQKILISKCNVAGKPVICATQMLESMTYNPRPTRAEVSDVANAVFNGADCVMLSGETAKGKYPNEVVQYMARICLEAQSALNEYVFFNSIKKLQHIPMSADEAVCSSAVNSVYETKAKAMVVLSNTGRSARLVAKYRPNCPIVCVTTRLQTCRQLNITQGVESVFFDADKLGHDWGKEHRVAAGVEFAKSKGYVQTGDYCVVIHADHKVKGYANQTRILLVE
# Method in brief: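 Eight-point qHTS titrations in triplicate, data normalized to DMSO neutral control. Reaction: 0.2 nM LmPYK E451W mutant, 0.5 mM PEP, 0.1 mM ADP, 7 mM MgCl2, pH 7.2, one hour at room temperature; luminescent ATP detection.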
# [10] = target: DNA dC->dU-editing enzyme APOBEC-3G (Homo sapiens) (UniProt Q9HC16); experiment: qHTS for inhibitors of Vif-A3G interactions: Validation (AID 588379); settings: Vif-A3G protein interaction assay; series mostly up to 46.1 µM; further: potency means the concentration at half of the fitted maximal effect
# Chain of UniProt Q9HC16 (Q9HC16 whole entry, looked up): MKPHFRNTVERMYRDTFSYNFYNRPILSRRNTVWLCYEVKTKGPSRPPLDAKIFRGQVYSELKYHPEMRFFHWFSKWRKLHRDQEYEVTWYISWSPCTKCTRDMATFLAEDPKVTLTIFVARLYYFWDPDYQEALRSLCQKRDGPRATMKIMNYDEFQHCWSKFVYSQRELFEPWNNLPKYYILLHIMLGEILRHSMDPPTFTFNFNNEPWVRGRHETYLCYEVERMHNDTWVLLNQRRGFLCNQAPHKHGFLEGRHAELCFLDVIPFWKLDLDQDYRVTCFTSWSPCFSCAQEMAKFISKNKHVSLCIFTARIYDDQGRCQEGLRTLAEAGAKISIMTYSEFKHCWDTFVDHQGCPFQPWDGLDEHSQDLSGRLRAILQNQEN
# Method in brief: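 Yellow fluorescence (Ex 488, Em 500-530) of Vif-coexpressing HeLa A3G-eYFP cells, scanned by Acumen cytometer, reports blocked A3G degradation. Cells plated at 700/well overnight at 37 deg C before compound addition, then a further overnight compound incubation at 37 deg C.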
# [11] = High Content Imaging Cell-Based qHTS for Inhibitors of the mTORC1 Signaling Pathway in MEF Cells (AID 2667); settings: series mostly up to 38.3 µM; further: potency means the concentration at half of the fitted maximal effect
# Method in brief: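 Read-out is the share of phospho-rpS6-positive cells per well, from Hoechst-normalized Alexa-488 Ser235/236 staining imaged on IN Cell. Cells: WT Tsc2-expressing Tsc2-/-, p53-/- MEFs exposed to compound for 24 hrs.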
# [12] = target: Transient receptor potential cation channel subfamily V member 1 (Homo sapiens) (UniProt Q8NER1); experiment: HTS Assay for Compounds that Act as Enhancers of the Vanilloid Receptor 1 (AID 488979); settings: TRPV1-expressing cells, enhancer of channel activity, stimulated with capsaicin at EC20; series mostly up to 41.7 µM; further: potency means the concentration at half of the fitted maximal effect
# Chain of UniProt Q8NER1 (Q8NER1 whole entry, looked up): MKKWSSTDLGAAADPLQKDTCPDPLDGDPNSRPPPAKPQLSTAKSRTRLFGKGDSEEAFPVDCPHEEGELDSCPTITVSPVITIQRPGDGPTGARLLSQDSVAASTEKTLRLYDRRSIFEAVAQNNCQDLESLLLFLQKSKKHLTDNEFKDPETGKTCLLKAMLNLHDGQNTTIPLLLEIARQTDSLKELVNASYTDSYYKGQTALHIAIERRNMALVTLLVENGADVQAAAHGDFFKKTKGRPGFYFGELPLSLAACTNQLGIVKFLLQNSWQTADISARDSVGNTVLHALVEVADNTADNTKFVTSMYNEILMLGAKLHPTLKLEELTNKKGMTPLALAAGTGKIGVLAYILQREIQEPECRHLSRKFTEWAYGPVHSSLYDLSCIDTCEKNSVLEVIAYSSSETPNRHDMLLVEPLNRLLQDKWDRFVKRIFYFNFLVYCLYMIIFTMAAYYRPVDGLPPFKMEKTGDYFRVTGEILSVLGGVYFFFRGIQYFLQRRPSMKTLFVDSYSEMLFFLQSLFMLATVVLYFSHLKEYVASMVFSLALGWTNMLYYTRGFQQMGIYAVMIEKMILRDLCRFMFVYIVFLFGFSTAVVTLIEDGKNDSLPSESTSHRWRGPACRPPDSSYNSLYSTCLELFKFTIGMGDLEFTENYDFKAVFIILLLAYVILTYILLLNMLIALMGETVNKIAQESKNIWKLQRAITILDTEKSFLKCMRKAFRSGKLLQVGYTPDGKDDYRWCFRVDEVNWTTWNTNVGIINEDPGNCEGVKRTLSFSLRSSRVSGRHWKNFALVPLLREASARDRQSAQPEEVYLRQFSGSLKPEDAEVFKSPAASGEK
# Method in brief: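 TRPV1 cells loaded with Fluo-8 calcium dye; compound added and Ca2+ signal (ex 480/em 520 nm) followed 3 min, then capsaicin at EC20 added and read 2 more min to detect enhancement.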
# [13] = target: DNA repair nuclease/redox regulator APEX1 (Homo sapiens) (UniProt P27695); experiment: Confirmation qHTS Assay for Inhibitors of the Human Apurinic/apyrimidinic Endonuclease 1 (APE1) (AID 2572); settings: purified APE1, fluorogenic abasic-site DNA cleavage; series mostly up to 57.1 µM; further: potency means the concentration at half of the fitted maximal effect; nearly all actives have a fitted effect of over 30% in size
# Chain of UniProt P27695 (P27695 whole entry, looked up): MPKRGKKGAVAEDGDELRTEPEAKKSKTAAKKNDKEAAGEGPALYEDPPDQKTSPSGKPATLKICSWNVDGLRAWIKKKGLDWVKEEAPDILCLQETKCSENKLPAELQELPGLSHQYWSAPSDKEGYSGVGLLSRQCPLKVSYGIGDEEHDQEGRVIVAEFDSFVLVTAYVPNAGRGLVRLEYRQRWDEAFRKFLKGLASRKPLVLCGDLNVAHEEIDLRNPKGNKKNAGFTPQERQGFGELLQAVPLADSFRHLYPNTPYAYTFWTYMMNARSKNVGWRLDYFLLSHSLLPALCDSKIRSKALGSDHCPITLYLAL
# Method in brief: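 APE1 preincubated 15 min RT with compound; 50 nM TAMRA/BHQ-2 THF-abasic duplex added; kinetic fluorescence, 3 reads at 60 s intervals, Ex 525/Em 598; progress = read 3 minus read 1.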
# [14] = target: DNA polymerase III PolC-type (Bacillus subtilis (strain 168)) (UniProt P13267); experiment: qHTS Validation Assay for the Inhibitors of DNA Replication in Gram-Positive Bacteria (AID 485295); settings: Gram-positive bacterial DNA replication assay; series mostly up to 57.1 µM; further: potency means the concentration at half of the fitted maximal effect
# Chain of UniProt P13267 (P13267 whole entry, looked up): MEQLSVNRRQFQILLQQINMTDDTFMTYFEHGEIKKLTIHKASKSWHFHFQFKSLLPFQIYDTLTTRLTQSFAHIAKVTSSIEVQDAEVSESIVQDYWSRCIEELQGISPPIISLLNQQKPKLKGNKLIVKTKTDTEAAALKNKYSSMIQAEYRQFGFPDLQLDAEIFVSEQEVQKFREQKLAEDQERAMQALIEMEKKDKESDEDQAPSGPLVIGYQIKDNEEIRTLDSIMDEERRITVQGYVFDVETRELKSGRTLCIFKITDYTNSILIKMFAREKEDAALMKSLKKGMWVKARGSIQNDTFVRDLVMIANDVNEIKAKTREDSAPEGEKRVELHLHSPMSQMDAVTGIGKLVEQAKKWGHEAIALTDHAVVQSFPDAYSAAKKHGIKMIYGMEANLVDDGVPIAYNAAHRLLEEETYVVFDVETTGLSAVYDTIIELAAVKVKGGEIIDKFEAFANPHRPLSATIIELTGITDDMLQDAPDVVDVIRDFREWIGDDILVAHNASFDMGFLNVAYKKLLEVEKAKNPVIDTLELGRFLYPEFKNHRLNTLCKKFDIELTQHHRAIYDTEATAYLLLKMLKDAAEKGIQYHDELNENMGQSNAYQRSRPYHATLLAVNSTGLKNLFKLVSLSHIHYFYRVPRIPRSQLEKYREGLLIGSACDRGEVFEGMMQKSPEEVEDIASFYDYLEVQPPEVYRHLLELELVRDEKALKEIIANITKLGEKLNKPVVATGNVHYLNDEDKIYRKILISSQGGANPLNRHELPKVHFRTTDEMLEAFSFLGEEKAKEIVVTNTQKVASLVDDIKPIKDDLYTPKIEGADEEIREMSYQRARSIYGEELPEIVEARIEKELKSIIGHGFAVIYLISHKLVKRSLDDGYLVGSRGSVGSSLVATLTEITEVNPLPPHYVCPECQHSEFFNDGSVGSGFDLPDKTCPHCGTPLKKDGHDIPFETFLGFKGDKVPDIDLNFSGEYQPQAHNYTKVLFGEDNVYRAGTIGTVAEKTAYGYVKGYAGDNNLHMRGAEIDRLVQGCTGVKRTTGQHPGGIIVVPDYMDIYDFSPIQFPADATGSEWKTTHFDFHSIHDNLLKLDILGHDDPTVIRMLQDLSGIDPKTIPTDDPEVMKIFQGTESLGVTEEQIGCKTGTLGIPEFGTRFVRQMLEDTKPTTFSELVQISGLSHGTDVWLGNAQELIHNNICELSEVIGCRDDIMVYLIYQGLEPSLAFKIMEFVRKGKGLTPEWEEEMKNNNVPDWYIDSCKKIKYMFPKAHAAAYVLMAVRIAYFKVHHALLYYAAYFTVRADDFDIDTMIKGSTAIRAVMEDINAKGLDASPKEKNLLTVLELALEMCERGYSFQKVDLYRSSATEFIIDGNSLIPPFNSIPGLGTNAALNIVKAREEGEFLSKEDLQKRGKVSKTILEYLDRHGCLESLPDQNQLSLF
# Method in brief: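 First, compound is mixed with the reconstituted replication complex and held at room temperature. Next, circular single-stranded M13Gori with nucleotides starts synthesis. Finally, PicoGreen in EDTA halts the reaction and stains double-stranded product for fluorescence reading.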
# [15] = qHTS for Activators of Parkin Expression: LOPAC Validation Assay (NLuc Reporter) (AID 720572; further: potency means the concentration at half of the fitted maximal effect); settings: Parkin promoter NanoLuc reporter cells, luminescence; series mostly up to 46.1 µM
# Method in brief: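 NLuc signal, read 10 min after reagent and following a prior FLuc read, is normalized to DMSO (0) and positive controls (100%). Cells: neuronal Parkin-promoter coincidence reporter line; compounds tested 7-point, 24 h, 37 C, 5% CO2.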
# [16] = Cell viability qHTS assay in S16 Pmp22-F2sN cells - Confirmatory screen (AID 1508641); settings: S16 Schwann cells viability, CellTiter-Glo ATP luminescence, 24 h; series mostly up to 57.5 µM
# Method in brief: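 S16 Pmp22-F2sN Schwann cells (500-1,000/well) in DMEM with 10% FBS were treated with compounds for 24 h at 37C. Viability was read by CellTiter-Glo luminescence after 15 min at room temperature.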
# [17] = target: Pyruvate kinase PKM (Homo sapiens) (UniProt P14618); experiment: qHTS Assay for Inhibitors of Human Muscle Pyruvate Kinase (AID 958); settings: purified human PKM enzyme activity; series mostly up to 57.5 µM
# Chain of UniProt P14618 (P14618 whole entry, looked up): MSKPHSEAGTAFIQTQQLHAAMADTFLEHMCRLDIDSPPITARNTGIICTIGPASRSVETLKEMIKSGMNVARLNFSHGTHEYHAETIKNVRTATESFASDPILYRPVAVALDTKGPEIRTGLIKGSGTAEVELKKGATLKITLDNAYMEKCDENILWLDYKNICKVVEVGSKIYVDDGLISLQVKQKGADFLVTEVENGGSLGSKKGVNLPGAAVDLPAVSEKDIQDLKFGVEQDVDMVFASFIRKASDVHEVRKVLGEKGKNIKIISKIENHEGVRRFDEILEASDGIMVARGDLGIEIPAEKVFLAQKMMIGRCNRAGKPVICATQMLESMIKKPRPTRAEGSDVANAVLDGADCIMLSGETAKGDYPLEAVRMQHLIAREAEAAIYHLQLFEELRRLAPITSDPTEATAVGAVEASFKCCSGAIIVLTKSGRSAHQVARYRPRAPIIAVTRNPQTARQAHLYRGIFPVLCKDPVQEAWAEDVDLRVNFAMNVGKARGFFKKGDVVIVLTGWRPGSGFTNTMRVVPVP
# Method in brief: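 PKM2, human, >95% pure, 0.1 nM; PEP 0.5 mM (Km), ADP 0.1 mM; 50 mM imidazole pH 7.2, 50 mM KCl, 0.01% Tween 20, 0.05% BSA; 1 h RT; luciferase luminescence readout.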
# [18] = target: Endonuclease 4 (Escherichia coli (strain K12)) (UniProt P0A6C1); experiment: Counterscreen for APE1 Inhibitors: qHTS Assay for Inhibitors of Endonuclease IV (AID 2565); further: potency means the concentration at half of the fitted maximal effect; settings: E. coli Endo IV, fluorogenic AP-site DNA cleavage; series mostly up to 57.1 µM
# Method in brief: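 Read-out: fluorescence rise (ex 525/em 598 nm) from incision of a TAMRA/BHQ-2 double-stranded THF abasic-site substrate (50 nM), measured kinetically; third-minus-first read difference gave reaction progress. Enzyme 2 nM.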
# [19] = tested on: Zika virus NS2B-NS3 protease (unlinked complex); experiment: Primary screen GU Rhodamine qHTS for Zika virus inhibitors: Unlinked NS2B-NS3 protease assay (AID 1347159); settings: Recombinant ZIKV NS2B-NS3 protease, Rhodamine110 substrate fluorescence; series mostly up to 107 µM; further: potency means the concentration at half of the fitted maximal effect; nearly all actives have a fitted effect of over 60% in size
# Method in brief: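 In dose–response format, inhibition of unlinked protease (25 nM) was measured with 1.5 microM bis-peptide Rhodamine110 substrate. Aprotinin served as the intraplate control.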
# Tags describe the fitted curve by direction and shape.
compound,measurement,setting,value
O=C1c2c(O)ccc([N+](=O)[O-])c2C(=O)c2c([N+](=O)[O-])ccc(O)c21,Potency,[1],active: 39.8 µM
same,Potency,[2],active: 39.8 µM
same,Potency,[3],active: 39.8 µM
same,Potency,[4],active: 31.6 µM
same,Potency,[5],active: 39.8 µM
same,Potency,[6],active: 39.8 µM
same,Potency,[7],active: 39.8 µM
O=C(O)c1ccccc1Nc1cccc(OCc2ccc3ccccc3n2)c1,Potency,[8],inactive and active: 7.94 µM
Cn1c(=O)c2[nH]c(-c3ccccc3)nc2n(C)c1=O,Potency,[9],inactive
Cc1c(-c2ccc(O)cc2)nn(-c2ccc(O)cc2)c1-c1ccc(OCCN2CCCCC2)cc1,Potency,[10],"inconclusive: 26.6 µM [inhibitor, partial curve, poor fit]"
NCCNS(=O)(=O)c1cccc2c(Cl)cccc12,Potency,[11],active: 16.5 µM
same,Potency,[12],"inconclusive: 20 µM [activator, single point]"
COc1cc(-c2ccc(N=Nc3ccc4c(S(=O)(=O)O)cc(S(=O)(=O)O)c(N)c4c3O)c(OC)c2)ccc1N=Nc1ccc2c(S(=O)(=O)O)cc(S(=O)(=O)O)c(N)c2c1O,Potency,[13],active: 12.6 µM and active: 1 µM
O=c1[nH]c(=S)[nH]c(-c2ccccc2)c1Cc1c(O)ccc2ccccc12,Potency,[14],"inconclusive: 21.2 µM [inhibitor, single point]"
same,Potency,[15],"inconclusive: 18.4 µM [activator, partial curve]"
CC(Oc1ccccc1)C(=O)Nc1ccccc1C(=O)OCc1cc(=O)n2nc(C3CC3)sc2n1 (centres undefined),Potency,[16],inactive
O=C(Nc1cc(C(=O)Nc2ccc(S(=O)(=O)O)cc2S(=O)(=O)O)cc(C(=O)Nc2ccc(S(=O)(=O)O)cc2S(=O)(=O)O)c1)Nc1cc(C(=O)Nc2ccc(S(=O)(=O)O)cc2S(=O)(=O)O)cc(C(=O)Nc2ccc(S(=O)(=O)O)cc2S(=O)(=O)O)c1,Potency,[17],"inconclusive: 31.6 µM [inhibitor, partial curve]"
same,Potency,[18],"inconclusive: 10 µM [inhibitor, partial curve]"
COc1cccc(-n2nc(C(=O)O)cc2-c2ccc(C3CCCCC3)c(Cl)c2)c1,Potency,[19],active: 1.78 µM
